Results from publication PMC4336329 (PLoS ONE, 2015).
The campaign covered roughly 310,000 compounds. About 14,000 (4.5%) showed an effect of 50% or more. Effects have a minus sign here. This is one part of the list.

target: human ether-à-go-go-related gene (hERG) potassium channel (human, UniProt Q12809); experiment: primary screen, population patch clamp on CHO cells stably expressing hERG
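Further: peak tail current of the secondary pulse compared with the same well before compound.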

Chain of human ether-à-go-go-related gene (hERG) potassium channel (Q12809 whole entry, looked up): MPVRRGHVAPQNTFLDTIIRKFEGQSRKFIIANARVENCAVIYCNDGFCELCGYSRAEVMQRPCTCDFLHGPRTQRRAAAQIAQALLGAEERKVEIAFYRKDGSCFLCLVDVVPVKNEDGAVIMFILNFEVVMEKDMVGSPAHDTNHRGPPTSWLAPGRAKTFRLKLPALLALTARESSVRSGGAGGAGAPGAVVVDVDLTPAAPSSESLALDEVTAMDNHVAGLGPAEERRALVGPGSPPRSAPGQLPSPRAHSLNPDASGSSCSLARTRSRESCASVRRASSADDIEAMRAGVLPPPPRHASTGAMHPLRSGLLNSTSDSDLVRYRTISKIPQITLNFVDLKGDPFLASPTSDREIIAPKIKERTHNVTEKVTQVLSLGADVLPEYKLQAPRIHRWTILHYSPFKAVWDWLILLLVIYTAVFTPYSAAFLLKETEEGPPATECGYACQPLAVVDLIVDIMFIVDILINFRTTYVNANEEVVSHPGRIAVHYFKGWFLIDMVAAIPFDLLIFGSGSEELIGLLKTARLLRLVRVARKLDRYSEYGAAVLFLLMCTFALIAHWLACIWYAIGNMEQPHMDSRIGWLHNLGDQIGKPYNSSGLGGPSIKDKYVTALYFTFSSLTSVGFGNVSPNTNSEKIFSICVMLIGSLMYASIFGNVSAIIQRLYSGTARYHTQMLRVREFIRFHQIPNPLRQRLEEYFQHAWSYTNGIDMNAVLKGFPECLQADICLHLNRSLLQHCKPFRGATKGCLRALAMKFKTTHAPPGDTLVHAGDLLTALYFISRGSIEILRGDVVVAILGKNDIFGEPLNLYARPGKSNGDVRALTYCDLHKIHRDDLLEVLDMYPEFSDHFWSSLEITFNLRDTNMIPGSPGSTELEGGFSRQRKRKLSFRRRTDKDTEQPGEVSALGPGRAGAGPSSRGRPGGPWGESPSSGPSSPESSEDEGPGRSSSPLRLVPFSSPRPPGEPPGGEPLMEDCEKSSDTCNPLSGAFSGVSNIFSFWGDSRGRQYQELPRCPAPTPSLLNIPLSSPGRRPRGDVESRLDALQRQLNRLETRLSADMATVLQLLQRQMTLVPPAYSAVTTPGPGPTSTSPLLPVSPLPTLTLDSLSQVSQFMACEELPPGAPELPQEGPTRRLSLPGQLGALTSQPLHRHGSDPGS

| SMILES | hERG current change (%, negative = inhibition) at 10uM |
| --- | --- |
| COc1ccc(CN2CC(=O)N3[C@H]4c5ccccc5OC[C@@H]4[C@H](c4ccccc4)[C@]3(C)C2=O)cc1 | 15.3% |
| O=C(Cc1csc(N2CCOCC2)n1)N/N=C/c1ccccc1C(=O)O | 21.4% |
| CCN(CC)C(=O)COc1ccc(/C(C)=N/Nc2ncc(Cl)cc2Cl)cc1 | -19.6% |
| CCNC(=O)C12CCC(C)(C(=O)C1Br)C2(C)C (centres unmarked) | 14.2% |
| Cc1ccc(NC(=O)c2nc(C)n(-c3ccc([N+](=O)[O-])cc3)n2)cc1 | -32.2% |
| OCC(O)C1OC(Nc2ccc(Cl)cc2)C(O)C1O (centres unmarked) | 0.0372% |
| COc1ccc(NC(=O)c2cc([N+](=O)[O-])ccc2NC(=O)CNC2CCCCC2C)c(OC)c1 (centres unmarked) | -76.3% |
| COCCN1C(=O)c2oc3cc(C)c(C)cc3c(=O)c2C1c1cccc(O)c1 (centres unmarked) | -15% |
| C(=C1/CCCC2=C1Nc1ncnn1C2c1ccccc1)/c1ccccc1 (centres unmarked) | -12.1% |
| COc1ccc(-n2c(O)c(/C=C3\C=Nc4ccc(Br)cc43)c(=O)[nH]c2=O)c(OC)c1 | 10.8% |
| Cc1ccc2c(c1)C(c1ccccc1)C(=O)O2 (centres unmarked) | 3.23% |
| Cc1cccc(N2C(=O)CS/C2=N\NC(=O)c2ccc(Cl)cc2)c1C | 1.76% |
| COc1ccc(C(=O)N2CCCC(c3ccccc3)=N2)cc1 | -0.229% |
| C/C=C/c1ccc2c(c1)OCO2 | 20.8% |
| CC12CCC(=O)N1C(C(=O)Nc1nc3c(F)cc(F)cc3s1)CS2 (centres unmarked) | -6.06% |
| COC(=O)c1ccc(NC(=O)C(=O)c2cccn2C)cc1 | 10.6% |
| CS(=O)(=O)Nc1ccccc1C(=O)OCC(=O)NC1CC1 | 8.92% |
| CCOC(=O)N(CC)c1ccc(C(O)(C(=O)OC)C(F)(F)F)cc1 (centres unmarked) | -1.03% |
| CCOc1ccccc1OCCOc1ccccc1CC | 10.1% |
| Cc1c(C(=O)N(C)CCn2ccnc2C)oc2c(F)cccc12 | -35% |
| Cc1ccc(C)c(Cn2c(=O)n(-c3ccc(CC(=O)NCc4ccco4)cc3)c(=O)c3sccc32)c1 | -12.9% |
| O=C(c1ccncc1)c1ccc(NC(=O)c2cccs2)cc1 | -17% |

| SMILES | hERG current change (%, negative = inhibition) at 10uM |
| --- | --- |
| c1ccc(-c2ccc(C3CCCN3)cc2)cc1 (centres unmarked) | -9.81% |
| Cc1noc(C)c1C(=O)N1CCCC(C(=O)c2cccc(C(F)(F)F)c2)C1 (centres unmarked) | -22.6% |
| COc1ccc(OC)c(NC(=O)CSc2nnc(C3CCCCC3)n2-c2ccccc2)c1 | -18.5% |
| COCCn1c(=NC(=O)CSCC(=O)N2CCOCC2)sc2cc(C)ccc21 | -14.8% |
| Cc1cc(C)c2c(c1)/C(=N\N=c1\sc3ccccc3n1C)C(=O)N2 | 12.3% |
| CCOc1ccc(CNC(=O)CCc2cn(C)c3ccccc23)cc1OC | 9.22% |
| Cc1ccc2c(C)c(C(=O)N3CCN(C4CCS(=O)(=O)C4)CC3)oc2c1C (centres unmarked) | -4.49% |
| Cc1ccc(C)c(NC(=S)NNC(=S)Nc2ccc(C(C)C)cc2)c1 | 27.9% |
| Cc1cccc2cc3c(N)c(C(=O)N4CCc5ccccc54)sc3nc12 | 13.5% |
| Cc1ccc(-c2nnn(Cc3nc4ccccc4s3)n2)cc1 | -4.73% |
| COC(=O)C1=CN(Cc2ccc(OC)c(OC)c2)C=C(C(=O)OC)C1c1ccccc1F | 7.61% |
| CCCn1c(N/N=C(C)\C=C\c2ccccc2)nc2c1c(=O)[nH]c(=O)n2C | -8.82% |
| CCCNC(=O)Cn1nc(C(F)(F)F)c2c1CCC2 | 20% |
| COc1ccc(S(=O)(=O)N(CC(=O)NCc2ccco2)c2ccccc2OC)cc1 | -25.5% |
| O=C(COc1cccc(F)c1)NNC(=O)Cc1ccc(S(=O)(=O)N2CCOCC2)s1 | -11.9% |
| CN1C[C@@H]2C(c3ccccc3)C3(c4ccccc4)CC2(C3)[C@H]1c1ccccc1 (some centres unmarked) | -25.7% |
| CCN(CC)S(=O)(=O)c1ccc(N2CCOCC2)c(NC(=O)c2cc(C)cc(C)c2)c1 | -19.7% |
| Cc1ccc(C(=O)NNC(=O)CSc2nnc3c(n2)[nH]c2ccc(F)cc23)cc1 | 9.15% |
| Nn1c(SCC(=O)Nc2ccc3c(c2)OCO3)nnc1-c1ccc(Cl)cc1 | 0.302% |
| Cc1cccc(NC(=O)C(C)OC(=O)c2ccccc2NS(=O)(=O)c2cc(C)c(C)c([N+](=O)[O-])c2)c1 (centres unmarked) | 1.74% |
| COc1ccc(CCNC(=O)C2CCN(S(=O)(=O)c3cccs3)CC2)cc1OC | -5.23% |
| O=C(CCC1CCCCC1)NCCN1C2=NC[C@@H](Cc3ccccc3)N2C[C@H]1Cc1ccc(O)cc1 | -69.3% |

| SMILES | hERG current change (%, negative = inhibition) at 10uM |
| --- | --- |
| COc1ccccc1CNC(=O)CNCC1CCCO1.O=C(O)C(=O)O (centres unmarked) | -33.3% |
| Cc1nc2c(c3c1[nH]c1ccccc13)C(O)CC(C)(C)C2 (centres unmarked) | -7.51% |
| COc1ccc(C(O)P(=O)(Oc2ccccc2)Oc2ccccc2)cc1 (centres unmarked) | 5.78% |
| CC(C)CNS(=O)(=O)c1ccc(OCC(=O)Nc2ccc(F)cc2F)cc1 | 9.76% |
| Cc1ccc(-n2c(O)c(C=Nc3ccccc3-c3n[nH]c(=S)[nH]c3=O)c3ccccc3c2=O)c(C)c1 | 10.6% |
| CN(CCOc1ccc(Cl)cc1)CC(O)c1ccccc1.O=C(O)C(=O)O (centres unmarked) | -60.4% |
| CCn1c(=O)n(CC)c2cc(N3CCCC3)c(NC(=O)c3ccccc3C)cc21 | -1.31% |
| COc1ccc(C(C)=O)cc1COC(=O)c1ccc(OCc2c(C)noc2C)cc1 | 3.84% |
| O=S1(=O)c2ccccc2N=NN1Cc1ccc(Cl)c(Cl)c1 | 6.18% |
| COc1cccc(C2=CC(c3ccccc3)n3nnnc3N2)c1 (centres unmarked) | 4.23% |
| COc1ccc(-c2nc3ccccc3c(=O)n2CCOc2c(C)cccc2C)cc1 | 15% |
| Cc1ccc(NC(=O)CNC(=O)C2CCCCC2)nc1 | 12.5% |
| COc1ccc(-n2c(=O)c3ccccc3n(Cc3ccccc3F)c2=O)cc1OC | 6.17% |
| COc1ccccc1N1CCN(CC(O)COc2cccc3ccccc23)CC1.Cl (centres unmarked) | -68.3% |
| O=C(NCCCNC(=O)c1ccc(F)cc1)c1ccc(F)cc1 | 7.81% |
| COc1ccccc1NS(=O)(=O)/C=C/c1ccccc1 | -16.8% |
| CN(CC(=O)Nc1ccc(S(=O)(=O)N2CCCC2)cc1)CC(=O)Nc1cccc(F)c1 | -23.1% |
| O=C(NC(=S)NCC1CCCO1)C(c1ccccc1)c1ccccc1 (centres unmarked) | 2.82% |
| CCOC(=O)/C(C#N)=C/c1cc(C)n(-c2ccccc2)c1C | 20.8% |
| NC(=O)c1cccc2c1-c1ccccc1/C2=N/NC(N)=S | -2.22% |
| CCOC(=O)C1CCCN(CC(O)COc2cccc(C)c2)C1.Cl (centres unmarked) | -23.7% |
| N#Cc1nc(COc2ccc(Cl)cc2)oc1N1CCCC1 | -38.9% |

| SMILES | hERG current change (%, negative = inhibition) at 10uM |
| --- | --- |
| COc1cccc(NC(=O)N2CCCC(C(=O)NCc3ccc(F)cc3)C2)c1 (centres unmarked) | -24.1% |
| CC(Oc1ccc(C(=O)NCCc2ccccc2)cc1)C(=O)O (centres unmarked) | 4.88% |
| NS(=O)(=O)c1ccc(NC(=S)NCc2ccc(Cl)cc2)cc1 | 14.1% |
| Cc1ccccc1NC(=O)c1csc2c1CCCC2 | -20.9% |
| COc1ccc(CC(=O)O/N=C(\N)c2ccc(Br)cc2)cc1OC | 11.7% |
| CN1C(=O)/C(=C/C=C2/CCCN2C)N(C)C1=S | 8.63% |
| Cc1ccc(CNC(=O)C2(c3cccs3)CCOCC2)cc1 | -1.07% |
| O=S(=O)(Nc1ccc2ccccc2n1)c1ccccc1Cl | 7.96% |
| O=c1c2ccccc2nc2sc(Nc3ccc(F)cc3)nn12 | 1.78% |
| CSc1ccc(-c2nc(CSCC(=O)NC3CC3)c(C)o2)cc1 | -16.8% |
| N=c1c2c(ncn1CCCO)Oc1ccc3ccccc3c1C2c1ccccc1 (centres unmarked) | -53.6% |
| CCCCNS(=O)(=O)c1ccc(NC(=O)c2c(-c3ccccc3Cl)noc2C)cc1 | 4.28% |
| Cc1cc(C(=O)N/N=C/c2ccc(N(C)C)cc2)c2ccccc2n1 | 1.4% |
| COc1ccc(S(=O)(=O)N2CCOC2CNC(=O)C(=O)NCCc2ccccc2)cc1C (centres unmarked) | -23.4% |
| Cc1ccc(OCc2cc(C(=O)N3CCC(Oc4cccnc4)CC3)no2)cc1C | -56.7% |
| O=C(O)COc1ccccc1/C=N/NC(=O)CSc1nc2ccccc2c(=O)n1-c1ccccc1 | -0.123% |
| CCCS(=O)(=O)N1CCC(C(=O)NCc2ccc3c(c2)OCO3)CC1 | -9.83% |
| CC1(C)CC(=O)C2=C(C1)c1c(ccc3ccccc13)NC2c1ccc(OCC(=O)O)cc1 (centres unmarked) | 9.19% |
| O=C(/C=C/c1ccccc1)NCCSc1ccc(Cl)cc1 | 12.9% |
| COc1cc(SC#N)ccc1N=Cc1c(C)[nH]n(-c2ccc(C)cc2)c1=O | -1.36% |
